Test results published in patent US20230117205A1, “B7-H4 ANTIBODY-DRUG CONJUGATES FOR THE TREATMENT OF CANCER” (SEAGEN INC., priority 2021, published 2023).

Columns and labels:
Settings in all cases: 48 hours; 1 μg/mL ADC or mAb or 100 nM MMAE
SKBR3 cells [1] = assay: ATP release (CellTiter Glo on supernatants)
Protocol: (§1) SKBR3 cells were cultured in RPMI containing 10% fetal bovine serum (FBS) and penicillin/streptomycin (P/S) and passaged every 3-4 days at ˜1:5 dilution. On day 0, cells were collected with 0.05% Trypsin-EDTA (Gibco #25300-054), resuspended in complete media, and ˜120,000 cells in 1 mL media were added to each well of a 12-well plate (ThermoFisher Scientific #150628). The next day, the media from each well was removed and replaced with 1 mL of fresh media containing 1 μg/mL ADC or mAb or 100 nM MMAE. On day 3, 48 hours after treatment, media from each well of the 12-well plate was transferred to a 96-well, 2 ml plate (USA Scientific #18962800) and spun at 1500 rpm for 5 minutes (min) to remove cell debris and non-adherent “floating” cells. Then 200 mL of supernatants were transferred to a standard 96-well, round-bottom plate (ThermoFisher Scientific #163320). These supernatants were used immediately for the ATP assay (described below) or frozen at −20° C. for the HMGB1 assay (described below). […]
(§2) ATP release was evaluated as follows immediately after collection of supernatants as described above. […] The plates were mixed briefly, sealed, and analyzed on an Envision plate reader within 20 minutes following the addition of the CellTiter Glo. HMGB1 release was evaluated using the HMGB1 Express ELISA kit according to the manufacturer's protocol (Tecan #30164033).

SKBR3 cells [2] = assay: HMGB1 release (ELISA)
Protocol: as §1, §2

SKBR3 cells [3] = assay: Calreticulin exposure (flow cytometry); format: cell-based, human
Protocol: Calreticulin exposure was evaluated by flow cytometric staining as follows. Live/Dead (L/D) staining buffer [ThermoFisher Scientific #L10119] was prepared by reconstituting the dye in 50 μL of DMSO and transferring to a 50 mL conical containing 50 mL of PBS. The cells collected above were resuspended in 1 mL of freshly prepared L/D staining buffer and incubated for 20 min at room temperature (RT). Next, the cells were pelleted and washed twice with FACS buffer (PBS containing 2% FBS). Annexin V/Calreticulin/PI staining solution was prepared as follows: • FACS buffer (2% FBS/PBS)—90 μL per well • 10× Annexin V binding buffer (Fisher Scientific #BDB556454)—10 μL per well • Annexin V-FITC (Fisher Scientific #BDB556419)—2 μL per well • Calreticulin-A647 (Abcam #ab196159)—2 μL per well • PI (Propidium Iodide, ThermoFisher Scientific #R37169)—5 μL per well
Cells in each well were resuspended in 100 μL staining solution and incubated for 20 min at RT. Next, the cells were washed twice with 1 mL of FACS/Annexin V binding buffer (1×), resuspended in 250 μL FACS/Annexin V staining buffer, and analyzed on an Attune flow cytometer (ThermoFisher Scientific).

Row | Compound | ATP release (SKBR3 cells [1]) | HMGB1 release (SKBR3 cells [2]) | surface exposure of calreticulin (SKBR3 cells [3])
1 | SGN-B7H4V: ADC of fully human IgG1 anti-B7-H4 mAb conjugated to monomethyl auristatin E (MMAE) via a protease-cleavable valine-citrulline linker (vedotin) | led to the release of ATP | release of ATP and HMGB1 | surface exposure of calreticulin
2 | CC[C@H](C)C([C@@H](CC(=O)N1CCC[C@H]1[C@H](OC)[C@@H](C)C(=O)N[C@H](C)[C@@H](O)c1ccccc1)OC)N(C)C(=O)[C@@H](NC(=O)[C@@H](NC)C(C)C)C(C)C (stereo partly drawn) [MMAE, monomethyl auristatin E, reference compound] | led to the release of ATP | release of ATP and HMGB1 | surface exposure of calreticulin
